± gives the standard deviation. The entries are a selection whose mix differs from that of the whole data set.
These sequences were tested on MIWI (PIWIL1) piRISC loaded with piRNA #1 (30 nt) (assay: pre-steady-state target cleavage rate (min^-1); MIWI and MILI are mouse PIWI proteins and EfPiwi is from a freshwater sponge; tags in brackets are library labels; higher = faster piRNA-guided slicing of the target). Settings: guide: piRNA #1 5'p-UGAGGUAGUAGGUUGUAUAGUAUCCAGAGG; auxiliary factor: 500 nM mouse GTSF1.
How it was run: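 Active affinity-purified piRISC carrying one synthetic guide (1 nM) was mixed with a transcribed, DNA-blocked target RNA library […] in HEPES–potassium acetate buffer at 33 °C for 0–8 or 0–960 min, with or without 500 nM GTSF1 partner protein. Uncleaved targets were then sequenced and normalised to depth and to weakly complementary targets. Three trials were pooled, and k3 was capped at 0.0001 min^-1. A burst-and-steady-state fit was applied to obtain the pre-steady-state cleavage rate.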
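Further: 1 nM active piRISC with 0.1 nM target library at 33 °C single turnover.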

| Sequence | pre-steady-state target cleavage rate |
| --- | --- |
| CCUCUGGAUCUAUACAACCUACUACCUCA | 1.19 ± 0.086 |
| GGACUGCAUACAAUACAACCUACUACCUCA | 0.783 ± 0.12 |
| GGAGACGAGUACUAUACAACCUACUACCUCA | 1.47 ± 0.12 |
| GCUCUGGAUACUAUACAACCUUCUACCACA | 0.666 ± 0.042 |
| GGAGUGGAUACUAUACAACGUACUUCCUCA | 0.127 ± 0.022 |
| GCUCUGGAUACGUAUACAACCUACUACCUCA | 1.46 ± 0.085 |
| GGACUGGAUACAAUACAACCUACUACCUCA | 1.49 ± 0.11 |
| GGAGUGGAUACUAUACUUCCUACUACCUCA | 0.214 ± 0.026 |
| GGAGUGCAUACUAUACAUCCUACUACCUCA | 1.51 ± 0.1 |
| GGAGUGGAUAGUAUACUACCUACUACCUCA | 0.516 ± 0.043 |
| GGAGACCUAACUAUACAACCUACUACUUCA | 1.42 ± 0.15 |
| GGAGACCUUACUAUAGUUCCUACUACCUCA | 0.00439 ± 0.002 |
| GGAGACCUAUCUAUACAACCUACUAGCUGA | 0.0288 ± 0.0089 |
| GGUCUGGUUACUAUACAACCUACUACGUCA | 0.359 ± 0.053 |
| GGAGACCUUACUAUACAACCUACUACGACA | 0.655 ± 0.062 |
| GGAGACCUAUCUAUACAACCUAAUACCUCA | 0.128 ± 0.014 |
| GCUCUGGAUACUAUACAACCAACUACCUCA | 0.171 ± 0.018 |
| GGAGACCAUCCUAUACAACCUACUACCUCA | 1.73 ± 0.21 |
| GGAGACCAUACUAUAGUACCUACUACCUCA | 0.423 ± 0.064 |
| GGUCUGGAUACUAUACAAGCUACUUCCUCA | 0.581 ± 0.05 |

| Sequence | pre-steady-state target cleavage rate |
| --- | --- |
| GGAGACCUUACUAUACAACGUAGUACCUCA | 0.0931 ± 0.021 |
| CCUCUGGAUAGUAUACAUCCUACUACCUCA | 0.245 ± 0.03 |
| GGAGAGGAUACUAUACUACGUACUACCUCA | 0.12 ± 0.019 |
| CCUCUGGUUACUAUACAACCUAGUACCUCA | 0.232 ± 0.043 |
| GGAGACCAUACUAUACAACCUACUACCUCC [g2:g23:cont:t1C] | 1.05 ± 0.054 |
| GGAGACCAUACUAUACAACCUACUAACUCA | 1.01 ± 0.067 |
| GGAGAGGAUACUAUACAACCUACCUACCUCA | 1.05 ± 0.059 |
| GCUCUGGAUACUAUACUUCCUACUACCUCA | 0.202 ± 0.024 |
| GGACUGGAUACUAAACAACGUACUACCUCA | 0.846 ± 0.075 |
| GGAGACGAUACUAUAGAACCUACUACGUCA | 0.264 ± 0.048 |
| GGAGACCAUACUAUAGAUCCUACUACCUCA | 0.501 ± 0.051 |
| GGAGACCUAUGUAUACACCCUACUACCUCA | 0.102 ± 0.017 |
| GGAGAGGAUACUAUACAACCUACUACCUAA | 0.961 ± 0.062 |
| GGAGACCUAUCUAUACAACCUACUACCAGA | 0.306 ± 0.04 |
| GGUCUGGAUACUAUACAACCUACUACGCUCA | 0.768 ± 0.08 |
| GGUCUGGAUGCUAUACAACCUACUACCUCA | 1.88 ± 0.14 |
| GGACUGGAAACUAUACAACCUACUACCUGA | 0.467 ± 0.1 |
| GCUCUGGAUACAAUACAUCCUACUACCUCA | 1.38 ± 0.089 |
| GGAGACCUAACUAUACAAGCUACAACCUCA | 0.192 ± 0.025 |
| GCUCUGGAUACUAAUCAACCUACUACCUCA | 1.33 ± 0.082 |

Reference: the supplement of paper PMC10338343
